From PubChem BioAssay AID2675 (National Center for Advancing Translational Sciences (NCATS), 2010)
About 100 (0.036%) of roughly 280,000 compounds were called active. Inconclusive means that the source gave no clear call. Such entries were picked first, then a sample of the others. Calls come from the whole dose curve; as a rule, active = well fitted inhibition curve with a large enough effect in the signal ratio, with a control signal flat (not every such curve was filed as active); inconclusive = small, poorly fitted or top-dose-only effect, or effect the other way, or a change in a side signal; inactive = no such curve, though single readings can be large or run the other way; the % refers to the signal ratio. A potency beside an inconclusive call is a rough fit, not a confirmed value. A note “side channel” means that the fit belongs to a control or component signal, not to the main read-out.
% is set by controls: 0 for no effect and ±100 for the full control effect; potency is the fitted concentration of half-maximal effect; tags give direction and shape of the fitted curve or compound fluorescence and quenching.

These compounds were tested against Muscleblind-like protein 1 (Homo sapiens) (UniProt Q9NR56) (assay: qHTS Assay for Inhibitors of MBNL1-poly(CUG) RNA binding). Settings: TR-FRET MBNL1-His/biotin-(CUG)12 binding, 665/545 ratio; activity change, negative = inhibition: at 57.5 µM (top of the series).
UniProt Q9NR56, sequence (Q9NR56 whole entry, looked up): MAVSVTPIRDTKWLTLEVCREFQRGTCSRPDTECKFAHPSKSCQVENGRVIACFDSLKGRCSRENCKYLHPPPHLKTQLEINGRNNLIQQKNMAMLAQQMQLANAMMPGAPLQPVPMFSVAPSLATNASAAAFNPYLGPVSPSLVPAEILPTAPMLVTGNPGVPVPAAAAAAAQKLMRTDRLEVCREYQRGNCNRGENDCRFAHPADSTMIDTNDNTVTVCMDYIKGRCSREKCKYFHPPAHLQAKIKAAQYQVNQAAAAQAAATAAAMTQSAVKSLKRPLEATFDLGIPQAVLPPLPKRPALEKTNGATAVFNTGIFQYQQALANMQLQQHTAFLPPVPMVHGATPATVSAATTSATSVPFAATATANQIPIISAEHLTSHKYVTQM
Summary of the method: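 MBNL1-His + Biotin-(CUG)12, cpd titration 92 nM–58 uM; Tb anti-His Ab 0.055 ng/ul, SA-XL665 5 nM (final); 60 min RT; ratiometric 665/545 nm, Ex 340 nm; normalized to buffer and full-complex controls.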
`CC(Oc1ccc(Cl)cc1)C(=O)NCCN1C(=O)S/C(=C\c2cccnc2)C1=O` (configuration not stated) was tested, and the Potency was inconclusive: 25.1 µM [quencher, side channel, single point].
In the case of `Cc1ccc(O)c(-c2cc(-c3cccc(Br)c3)n[nH]2)c1`, the “activity change, negative = inhibition” value is reported as inactive: -8.35%.
With `CN(C(=O)CCN1C(=O)/C(=C/c2ccccc2F)SC1=S)C1CCS(=O)(=O)C1` (configuration not stated) the Potency was inconclusive: 3.16 µM [quencher, side channel, full curve].
For `COc1cc(/C=C2\SC(=S)N(CCC(=O)N3CCN(C)CC3)C2=O)cc(OC)c1OC`, the Potency was inconclusive: 10 µM [quencher, side channel, partial curve].
For `O=C(Nc1ccccn1)C(NS(=O)(=O)c1cccc2nsnc12)c1ccccc1` (configuration not stated), the Potency was inconclusive: 5.62 µM [quencher, side channel, partial curve].
In the case of `CCCN(CCC)CCNC(=O)C1CCN(S(=O)(=O)c2cccc3nsnc23)CC1`, the Potency is reported as inconclusive: 12.6 µM [quencher, side channel, partial curve].
For `Cc1cc2nn(-c3cccc4ccccc34)nc2cc1N`, the Potency was inconclusive: 39.8 µM [quencher, side channel, single point].
For `CC(C)[C@H](NC(=O)[C@@H]1Cc2ccccc2CN1C(=O)OC(C)(C)C)C(=O)NCC1CCCO1` (some centres not stated), the “activity change, negative = inhibition” value was inactive: 1.17%.
For `COc1ccccc1C1=NOC(Cn2c(NCCOCCO)nc3c2c(=O)n(C)c(=O)n3C)C1` (configuration not stated), the “activity change, negative = inhibition” value was inactive: 3.54%.
`COc1cc(-c2noc(C)c2/C=C/c2ccc(C(=O)O)cc2)cc(OC)c1OC` was tested, and the Potency was inconclusive: 20 µM [quencher, side channel, single point].
`O=C(Nc1ncc([N+](=O)[O-])s1)c1ccco1` was tested, and the Potency was inconclusive: 14.1 µM [quencher, side channel, partial curve].
`CCCc1ccc(Oc2c(-c3ccc(O)c(C)c3O)n[nH]c2C)cc1` was tested, and the “activity change, negative = inhibition” value was inactive: -14.2%.
`O=c1c2cc(N3CCOCC3)ccc2[nH]c(=S)n1Cc1ccccc1Cl` was tested, and the “activity change, negative = inhibition” value was inactive: 57.2%.
With `O=c1[nH]n2cc(-n3cc([N+](=O)[O-])cn3)cnc2c1Br` the Potency was inconclusive: 14.1 µM [quencher, side channel, partial curve].
For `Cc1[nH]n(C)c(=O)c1N=Nc1ccc(S(C)(=O)=O)cc1`, the Potency was inconclusive: 14.1 µM [quencher, partial curve].
In the case of `OCc1ccnc2c(O)cccc12`, the Potency is reported as inconclusive: 22.4 µM [quencher, side channel, partial curve].
With `O=C(CSc1ccccc1C(=O)O)NC12CC3CC(CC(C3)C1)C2` the “activity change, negative = inhibition” value was inactive: 4.26%.
For `CCC(Sc1nnc(-c2ccco2)n1C)C(=O)Nc1nnc(C)s1` (configuration not stated), the “activity change, negative = inhibition” value was inactive: 1.66%.
With `O=[N+]([O-])c1ccc(O)c2cccnc12` the Potency was inconclusive: 10 µM [quencher, side channel, partial curve].
With `Cc1cc[n+](-c2[nH]c(=O)sc2/C=N/N=C(\[O-])c2ccncc2)cc1C` the Potency was inconclusive: 11.2 µM [quencher, side channel, partial curve].
In the case of `CN(C)S(=O)(=O)c1ccc(N2CCCC2)c(C(=O)Nc2nc3ccccc3s2)c1`, the Potency is reported as inconclusive: 35.5 µM [fluorescent, side channel, single point].
For `C=CCNC(=S)Nc1cc(Cl)ccc1OC`, the Potency was inconclusive: 5.62 µM [fluorescent, side channel, partial curve].
With `Cc1ccc2nc(/C(C#N)=C/c3ccc(-c4ccccc4C(=O)O)o3)[nH]c2c1` the Potency was inconclusive: 15.8 µM [quencher, partial curve].
For `O=C(O)CCCN1C(=O)/C(=C/c2ccncc2)SC1=S`, the Potency was inconclusive: 22.4 µM [quencher, side channel, partial curve].
For `Clc1cccc(-c2cc3nc4c(c(NCc5ccco5)n3n2)CCCC4)c1`, the “activity change, negative = inhibition” value was inactive: -2.76%.
`Cc1ccc(-c2c(C(=O)N/N=C/c3sccc3C)nnn2-c2nonc2N)cc1` was tested, and the “activity change, negative = inhibition” value was inactive: 7.16%.
For `O=C(Nc1cccc(O)c1)c1ccc2c(c1)C(=O)N(Cc1ccco1)C2=O`, the Potency was inconclusive: 35.5 µM [quencher, side channel, single point].
`O=C(O)c1cccc2cccnc12` was tested, and the “activity change, negative = inhibition” value was inactive: 20%.
For `Cc1cc(C(=O)COC(=O)CCc2nc3ccccc3c(=O)[nH]2)c(C)n1CC1CCCO1` (configuration not stated), the Potency was inconclusive: 20 µM [fluorescent, side channel, single point].
With `O=C(c1ccc2c(=O)n(C3CCCC3)c(=S)[nH]c2c1)N1CCN(C2CCCCC2)CC1` the “activity change, negative = inhibition” value was inactive: 0.749%.
For `COc1cccc(/C=C2/SC(=S)N(CCCC(=O)Nc3ccc(O)cc3)C2=O)c1`, the Potency was inconclusive: 20 µM [quencher, side channel, single point].
In the case of `O=C1C(=O)N(CCCN2CCOCC2)C(c2ccc([N+](=O)[O-])cc2)/C1=C(\O)c1ccc2c(c1)OCCO2` (configuration not stated), the Potency is reported as inconclusive: 3.98 µM [quencher, side channel, full curve].
`Cc1ccc(-n2ccc(=O)c(C(=O)Nc3ccc(S(=O)(=O)Nc4onc(C)c4C)cc3)n2)cc1` was tested, and the Potency was inconclusive: 17.8 µM [quencher, side channel, partial curve].
For `Cc1nc(C#N)c(N/N=C/c2cccc(Cl)c2)o1`, the Potency was inconclusive: 17.8 µM [quencher, side channel, single point].
For `O=C(COc1cccc(Cl)c1)NNC(=S)Nc1ccccc1`, the “activity change, negative = inhibition” value was inactive: -11.4%.
`CC1=NN(c2ccc([N+](=O)[O-])cc2)C(c2ccccc2)C1` (configuration not stated) was tested, and the Potency was inconclusive: 8.91 µM [quencher, side channel, partial curve].
`CCOC(=O)N1CCN(S(=O)(=O)c2cccc3nsnc23)CC1` was tested, and the Potency was inconclusive: 15.8 µM [quencher, partial curve].
For `O=[N+]([O-])c1ccc(COc2cccnc2)cc1`, the Potency was inconclusive: 28.2 µM [quencher, side channel, partial curve].
`Cc1ccc(C2=N/C(=C\N(C)C)C(=O)O2)cc1` was tested, and the Potency was inconclusive: 15.8 µM [quencher, partial curve].
For `COc1cc(OC)c(NC2=CC(=O)C(=O)c3ccccc32)cc1Cl`, the Potency was inconclusive: 3.98 µM [quencher, full curve].
With `O=C(/C=C/c1ccc([N+](=O)[O-])cc1)NNC(=O)C1CC1` the Potency was inconclusive: 4.47 µM [quencher, side channel, full curve].
With `Cc1cccc(C)c1Nc1c(-c2ccsc2)nc2ncccn12` the Potency was inconclusive: 8.91 µM [quencher, side channel, partial curve].
In the case of `O=C(Nc1nc(-c2cccc([N+](=O)[O-])c2)cs1)C(c1ccccc1)c1ccccc1`, the “activity change, negative = inhibition” value is reported as inactive: 3.16%.
`CCOc1cc(/C=C/c2cccc[n+]2C)ccc1O` was tested, and the Potency was inconclusive: 25.1 µM [quencher, side channel, partial curve].
For `O=C(NCC(c1ccco1)N1CCOCC1)c1ccc([N+](=O)[O-])cc1` (configuration not stated), the Potency was inconclusive: 14.1 µM [quencher, side channel, partial curve].
`O=c1[nH]c(=O)c2nc(-c3ccc(Cl)cc3)cnc2[nH]1` was tested, and the Potency was inconclusive: 12.6 µM [quencher, side channel, partial curve].
With `C#CCn1c(O)c(N=NC(=O)CNC(=O)/C=C/c2ccccc2)c2ccccc21` the Potency was inconclusive: 25.1 µM [quencher, side channel, partial curve].
In the case of `COc1ccc(NC(=O)c2ccco2)c([N+](=O)[O-])c1`, the Potency is reported as inconclusive: 12.6 µM [quencher, side channel, partial curve].
In the case of `CCOC(=O)c1ccc(NC(=O)C2C3CCCCC32)cc1` (configuration not stated), the “activity change, negative = inhibition” value is reported as inactive: -5.16%.
In the case of `Cc1cc(C)cc(NC(=O)Nc2ccc(-n3ccc(C(F)(F)F)n3)cc2)c1`, the “activity change, negative = inhibition” value is reported as inactive: -2.1%.
For `O=C(Nc1ccccc1)c1ccc2nc(-c3ccco3)c(-c3ccco3)nc2c1`, the Potency was inconclusive: 14.1 µM [quencher, side channel, partial curve].
With `Cc1ccc([N+](=O)[O-])cc1NC(=O)Nc1ccc(S(N)(=O)=O)cc1` the Potency was inconclusive: 17.8 µM [quencher, side channel, partial curve].
`CCOC(=O)CC(NC(=O)c1cc2cccc(OC)c2oc1=O)c1ccc(OC)cc1` (configuration not stated) was tested, and the Potency was inconclusive: 15.8 µM [quencher, side channel, partial curve].
With `CCOc1cc(C2/C(=C(\O)c3cc(C)ccc3C)C(=O)C(=O)N2CCN(C)C)ccc1O` (configuration not stated) the Potency was inconclusive: 14.1 µM [quencher, side channel, partial curve].
With `CCOC(=O)C1CCN(CC(C)(C)NS(=O)(=O)c2ccc(C)cc2)CC1` the “activity change, negative = inhibition” value was inactive: 0.472%.
In the case of `Cc1c(N=C/C=C/c2ccccc2)cnn1C`, the Potency is reported as inconclusive: 20 µM [quencher, side channel, single point].
With `CCC(=O)Nc1sc2c(c1C(N)=O)CCN(Cc1ccccc1)C2` the Potency was inconclusive: 6.31 µM [quencher, side channel, partial curve].
With `O=[N+]([O-])c1ccc(Cl)c(CN2CCCCCC2)c1` the Potency was inconclusive: 28.2 µM [quencher, side channel, partial curve].
With `O=c1/c(=C\c2cc([N+](=O)[O-])cc([N+](=O)[O-])c2O)sc2nc3ccccc3n12` the Potency was inconclusive: 25.1 µM [quencher, side channel, partial curve].
For `CCOc1cc(CN2CCCC(CNC(=O)c3ccc(F)cc3)C2)ccc1OC` (configuration not stated), the “activity change, negative = inhibition” value was inactive: -5.31%.
`COc1ccc(/C=C\c2nc(=O)c3ccccc3o2)cc1` was tested, and the “activity change, negative = inhibition” value was inactive: 0.984%.
With `O=C(O)c1ccc(COc2ccc3ccccc3c2/C=C2/NC(=O)N(c3ccccc3)C2=O)cc1` the Potency was inconclusive: 20 µM [quencher, side channel, partial curve].
